According to article PMC7819943, “Rice protein-binding microarrays: a tool to detect cis-acting elements near promoter regions in rice”:
This is one part of the list.

Target: T1, OsWOX13 (Oryza sativa, UniProt Q5QMM3 1-267)
T1 sequence: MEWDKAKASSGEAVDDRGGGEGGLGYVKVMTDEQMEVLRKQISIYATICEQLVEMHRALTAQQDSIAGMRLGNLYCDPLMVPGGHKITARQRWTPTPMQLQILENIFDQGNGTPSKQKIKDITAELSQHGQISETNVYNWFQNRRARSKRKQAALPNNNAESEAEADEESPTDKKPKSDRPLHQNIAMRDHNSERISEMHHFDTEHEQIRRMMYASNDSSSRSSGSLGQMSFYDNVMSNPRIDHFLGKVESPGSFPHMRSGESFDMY
Experiment: protein-binding microarray (RPBM); PBS, 2% BSA, 51.3 ng/ul salmon testes DNA, 50 uM zinc acetate, 200 nM TF, 25 C, 1 h; high values mean tight binding
Details: protein: recombinant; tags: N-terminal polyhistidine and DsRed monomer fusion (pET32a); label: CyDye5-dUTP incorporated in the synthesized complementary strand; 3' TTTTT single-stranded linker to array surface; dsDNA, one strand shown
Procedure, shortened: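 An Axon 4000B scanner gave the binding signal as per-feature fluorescence intensity in arbitrary units. This followed washing of a custom Agilent array that had been incubated for 1 h at 25 °C with 200 nM protein in PBS, 2% BSA, salmon testes DNA and 50 µM zinc acetate. The proteins were transcription factors fused at the N-terminus to polyhistidine and DsRed, expressed in E. coli BL21-CodonPlus and purified on Ni–NTA.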

Sequence	binding signal
TGTGATGCTAATTTTATATTTATTAGGACCATAGAATGCACGGAGTCACCTAGTGCAG	9890 fluorescence intensity (a.u.)
ACTAATACCGCTCTAATTTGATGGTCTATTCTATACTCCTCGGAGTCACCTAGTGCAG	6920 fluorescence intensity (a.u.)
ATGATTCACAATTACCGAACCCTGTTTCCCTAGTATCTTTCGGAGTCACCTAGTGCAG	7420 fluorescence intensity (a.u.)
ATGACCCAATCAGTTGTGTCACCCTGCCATTACGCATCTCCGGAGTCACCTAGTGCAG	4750 fluorescence intensity (a.u.)
ACATATACAATTAATTAATTAATACTCCCAAAAGTTCAGTCGGAGTCACCTAGTGCAG	37800 fluorescence intensity (a.u.)
TCACACAATAAATTAAACTTCTAGACTTTGAATCACTCAGCGGAGTCACCTAGTGCAG	3660 fluorescence intensity (a.u.)
CTTCTTAAACAGATTCTTTTCATCTTGAGCCATTGTTGATCGGAGTCACCTAGTGCAG	4230 fluorescence intensity (a.u.)
AAAATTAAATAAAATAGACAATTAAAGTTGGATTAGTAAACGGAGTCACCTAGTGCAG	4920 fluorescence intensity (a.u.)
CTGATTTAATCACCTATATATAGTTAGTGGAGTATATATGCGGAGTCACCTAGTGCAG	29300 fluorescence intensity (a.u.)
TTAAAACTTGTCAATTATATAACCAGAGGGAGTAGGTGTTCGGAGTCACCTAGTGCAG	14900 fluorescence intensity (a.u.)
CGTGATCAATTGACCTTTTGTGCTTCATTATAGATATGATCGGAGTCACCTAGTGCAG	11000 fluorescence intensity (a.u.)
AGTTCAGATTGATGACTTCATCTGTGTTATCAAAATGCATCGGAGTCACCTAGTGCAG	30500 fluorescence intensity (a.u.)
CCCTCAAGAAATAAATTGGCCAATCACTATTGCACAGCCGCGGAGTCACCTAGTGCAG	20000 fluorescence intensity (a.u.)
AGGAAATTTTATTATATATGTATATTACTTCCTCCGTTTCCGGAGTCACCTAGTGCAG	3190 fluorescence intensity (a.u.)
TATTTATCAATTATCCATGACGTAAGTCTTATGCAATATGCGGAGTCACCTAGTGCAG	11600 fluorescence intensity (a.u.)
TTTTAAATTTAAAATAATTAAAACTCAATTAATAATTTGTCGGAGTCACCTAGTGCAG	31300 fluorescence intensity (a.u.)
TTAATGCACTAATCAAGGACTGACGGGCGCCGCGCCACGACGGAGTCACCTAGTGCAG	9990 fluorescence intensity (a.u.)
TCCCTTGATGTGCAGATTAGTTATGTCTTTGCAGGGTAGTCGGAGTCACCTAGTGCAG	13200 fluorescence intensity (a.u.)
CTAGACTTTTAGATAGGATGATGAAATGCGAAAAGTATGGCGGAGTCACCTAGTGCAG	4060 fluorescence intensity (a.u.)
ATTAGGATTAATTAACTTTTCGCCTTGAAGCTCCCGTTGCCGGAGTCACCTAGTGCAG	24300 fluorescence intensity (a.u.)
TTTATTGATTTGTTTCTCTGCTGTTTTCTTTCCAGCAAGGCGGAGTCACCTAGTGCAG	37900 fluorescence intensity (a.u.)

Sequence	binding signal
CAAAATTACCAAACCCATTAATTAACATCTTCAGTCAAAACGGAGTCACCTAGTGCAG	5070 fluorescence intensity (a.u.)
GGAGGGTGAATTCGTTAATTATTATAAATGTAGGGGTGTACGGAGTCACCTAGTGCAG	7520 fluorescence intensity (a.u.)
TGTGTCCAAATATTCAATGTGATTGGGGAAGCTGGAGTAGCGGAGTCACCTAGTGCAG	4990 fluorescence intensity (a.u.)
GAGTGGAATTGACTAGTACTAGTATAGTAGACGGACGGCCCGGAGTCACCTAGTGCAG	6340 fluorescence intensity (a.u.)
CTGATTTTACATGTCATTAAAATATTATTAATATCGATCACGGAGTCACCTAGTGCAG	6710 fluorescence intensity (a.u.)
GAAACTGATGATGACACTGTTAAATTGTGTTGTATAACTGCGGAGTCACCTAGTGCAG	30100 fluorescence intensity (a.u.)
ATTGTCAAAATTTGTGTGATTGCCATCTCCTTCGCCATTGCGGAGTCACCTAGTGCAG	27000 fluorescence intensity (a.u.)
TATGATAGGATAGGAGAAACAAGTTGTACGCCACGCCGCACGGAGTCACCTAGTGCAG	6520 fluorescence intensity (a.u.)
CCATTAACAAACTAAAATGACAGCTCCGCACTGCCCCAACCGGAGTCACCTAGTGCAG	11800 fluorescence intensity (a.u.)
AAATTGCAATCTTCGCGTGACATCAAATTTCTCTTAACGTCGGAGTCACCTAGTGCAG	4300 fluorescence intensity (a.u.)
TCCATGATTGCATGGGCCTACCAGCCCATGTCGAGTATGGCGGAGTCACCTAGTGCAG	31000 fluorescence intensity (a.u.)
AAATGTGGAATAATTAACTATTTACCACTCTTACGAATAGCGGAGTCACCTAGTGCAG	4100 fluorescence intensity (a.u.)
TTAAAGATTGATCTCAGGGCTCTTGTTTAGATCCTGTCCGCGGAGTCACCTAGTGCAG	9580 fluorescence intensity (a.u.)
GAGTAATTACGAGCTGCATTAACATAATCATGGTTTTCTCCGGAGTCACCTAGTGCAG	19100 fluorescence intensity (a.u.)
TAACCAATCATATCAAATTTGGTGTCCTTCCAAATTCGACCGGAGTCACCTAGTGCAG	27300 fluorescence intensity (a.u.)
TCCATAATTAGCGGCTGATTACTGTAGCATCACTGTAGCACGGAGTCACCTAGTGCAG	31200 fluorescence intensity (a.u.)
TAATAATTGGTATTGTTGAGCCGAAGGATATGATAAAACTCGGAGTCACCTAGTGCAG	10800 fluorescence intensity (a.u.)
TTAATTCTTACTAATGGATAGCTCCGTTTTACATGTTTGGCGGAGTCACCTAGTGCAG	4580 fluorescence intensity (a.u.)
AATAATTTTGTAATCGGTAGTTGTTTCCTTTTACAAACTCCGGAGTCACCTAGTGCAG	11400 fluorescence intensity (a.u.)
TCGCTTGATTCTCATCCTGTAATCAACATAATAATCGCTTCGGAGTCACCTAGTGCAG	4400 fluorescence intensity (a.u.)
CATAATTAACACCAACTAACTATCCAAAGCTTCACGAGATCGGAGTCACCTAGTGCAG	27800 fluorescence intensity (a.u.)

Sequence	binding signal
ATATTTAAGTTGAGCGTATGATTGAAATCATCAGTGAGAACGGAGTCACCTAGTGCAG	9960 fluorescence intensity (a.u.)
AGCAGATTGGTTCTCATATTGGGCCACATGGGCCTCCACCCGGAGTCACCTAGTGCAG	25100 fluorescence intensity (a.u.)
GCAAAATTTGACATGTAAGCTGCTAGGACTAGTAGTAATGCGGAGTCACCTAGTGCAG	4630 fluorescence intensity (a.u.)
TAAATTACCCAATCTGAACTGAGATCTTTGGGTGGTATCTCGGAGTCACCTAGTGCAG	4090 fluorescence intensity (a.u.)
AACCATATGCATGAGATAATTGATAAGTACACACACATTTCGGAGTCACCTAGTGCAG	9900 fluorescence intensity (a.u.)
GTCTGATTAGTGTAAATACCATGCGCTCCTAATCTCTTAACGGAGTCACCTAGTGCAG	4120 fluorescence intensity (a.u.)
TTAGCGTCTAATTATAGGATTATTTATGATAATATTCGTCCGGAGTCACCTAGTGCAG	5680 fluorescence intensity (a.u.)
GTTGGAAATAAAAGCTTGATTATATTGTCAAGTGAAGCATCGGAGTCACCTAGTGCAG	4940 fluorescence intensity (a.u.)
TCGAAATTTCAAACCTTATTGACACGGTATTTATTGTATCCGGAGTCACCTAGTGCAG	10500 fluorescence intensity (a.u.)
CCGTAATCACTATACAGTCCAAATCAACATCCTAATCTCACGGAGTCACCTAGTGCAG	6040 fluorescence intensity (a.u.)
ATATGATTGGTATAAGTCTATTTTGGTTCCCTCGTCTATTCGGAGTCACCTAGTGCAG	47100 fluorescence intensity (a.u.)
ATATATATATATATATATCATATCCGGTATTAGGTTTGTTCGGAGTCACCTAGTGCAG	11000 fluorescence intensity (a.u.)
TGTCGGCCTAATTGATGTACAGCTATCTATTACTAGTTCTCGGAGTCACCTAGTGCAG	34500 fluorescence intensity (a.u.)
CTCAATTATTGTGATGGCAAGCTCCTTTCTGTAGATGGATCGGAGTCACCTAGTGCAG	6190 fluorescence intensity (a.u.)
ATCCATAAATTTACTAGAAATAGACATGCATGTTGGATCACGGAGTCACCTAGTGCAG	12200 fluorescence intensity (a.u.)
CAATAGACTAGATTAATAGTAAACCATCTCAATAGTATGTCGGAGTCACCTAGTGCAG	4460 fluorescence intensity (a.u.)
TCCCAGGGCCCATCAATTAGTAGTGAAACAAATCCGGTGGCGGAGTCACCTAGTGCAG	7490 fluorescence intensity (a.u.)
CTTGACAGTTATTTTGACACGTCCTGGTGGTGCGTTTTAACGGAGTCACCTAGTGCAG	24300 fluorescence intensity (a.u.)
AAAATTTTAAGAAATAAATTTAACAAATAGTTTAAAGGTACGGAGTCACCTAGTGCAG	4680 fluorescence intensity (a.u.)
TTAATTGCTTACATCACAGGCTCACAGCACATAACCTTGCCGGAGTCACCTAGTGCAG	31400 fluorescence intensity (a.u.)
CGAATGAGTTGATTTATACCAGGTTTCTAAGGGACTGTTTCGGAGTCACCTAGTGCAG	8860 fluorescence intensity (a.u.)

Sequence	binding signal
TCATCATATTTGACACTGATTGGAATCCTCAGGTAGCTAGCGGAGTCACCTAGTGCAG	22800 fluorescence intensity (a.u.)
CGCGTTGTCAATTTAAAGTTGGATTCAAAATAAACATATGCGGAGTCACCTAGTGCAG	14700 fluorescence intensity (a.u.)
TTTCTTAATGTGATGTATGACGTAAACCATCACCCTTGTTCGGAGTCACCTAGTGCAG	5050 fluorescence intensity (a.u.)
TTTAAGTATATTGATGGTCTAAATTAGTCTATAATGACCGCGGAGTCACCTAGTGCAG	5760 fluorescence intensity (a.u.)
CGTGTTAATTTTGGGAGTGCTGATGATACAGGATGGTTTCCGGAGTCACCTAGTGCAG	9680 fluorescence intensity (a.u.)
ACCAAACGCCTTGATTGAAACCATCGATATACATATGTAACGGAGTCACCTAGTGCAG	34900 fluorescence intensity (a.u.)
ACTTTCCTAATTGCGATTCGGCGAAGTCGCGTTATAATACCGGAGTCACCTAGTGCAG	4540 fluorescence intensity (a.u.)
TCTGTGATTGCGGCCAAACGAGATAGATTTCCGAGATGAGCGGAGTCACCTAGTGCAG	43400 fluorescence intensity (a.u.)
ACTATGCCAATTAAAATAAATCAATACAATAGGTATGATTCGGAGTCACCTAGTGCAG	9790 fluorescence intensity (a.u.)
ATTGATTTGATGAAACTAATTTACGGCACAATAGCAAATCCGGAGTCACCTAGTGCAG	57600 fluorescence intensity (a.u.)
GTGATTAGATGACCTACTGCTTATTTATTTTCATTCATACCGGAGTCACCTAGTGCAG	19700 fluorescence intensity (a.u.)
ACTACTTAATTTAGCTTATTTTGCATACTTGGTTTCTACACGGAGTCACCTAGTGCAG	8880 fluorescence intensity (a.u.)
GCTAATTAAATTAATAATTCATCTTAGGAATCACAGCGTCCGGAGTCACCTAGTGCAG	39000 fluorescence intensity (a.u.)
GTAGACAACATAAGATTATATAAGTTAACGTGGTTTATGACGGAGTCACCTAGTGCAG	3820 fluorescence intensity (a.u.)
GGTGATAGATGGGGAAGATAGGGAAGAGAGGAAGAAGAATCGGAGTCACCTAGTGCAG	12300 fluorescence intensity (a.u.)
ATATTATTGATGATGTGGAGAAGTTAAAGGAGCATGCACACGGAGTCACCTAGTGCAG	6220 fluorescence intensity (a.u.)
GACAGGTGACTGATTTGCTCAATAAACAATCTGAGGAATACGGAGTCACCTAGTGCAG	20300 fluorescence intensity (a.u.)
ACAAAATTAAATAGACAAATCCATACATGCACTAGACATGCGGAGTCACCTAGTGCAG	26500 fluorescence intensity (a.u.)
CATAATTTCGTAAGTGAATTTGCTTCAGTTATATAAATGCCGGAGTCACCTAGTGCAG	9650 fluorescence intensity (a.u.)
CTAAAGTTTAATTGTACTCTAAACATAGGCCTAATTTAGTCGGAGTCACCTAGTGCAG	6650 fluorescence intensity (a.u.)
ATCCATGATTTGCTACCGTGATGCTACAGTAATCAGCCGCCGGAGTCACCTAGTGCAG	29000 fluorescence intensity (a.u.)
